# Data taken from PubChem BioAssay AID1745845 (National Center for Advancing Translational Sciences (NCATS), 2022).
# Hit rate of the full screen: of about 360,000 compounds, about 2,600 (0.72%) were called active. The shares of active, inactive and inconclusive entries below differ from those in the screen. Calls come from the whole dose curve; as a rule, active = well fitted inhibition curve with a large enough effect; inconclusive = small, poorly fitted or top-dose-only effect; inactive = no such curve, though single readings can be large or run the other way. A potency beside an inconclusive call is a rough fit, not a confirmed value.
# Assay: Primary qHTS for Inhibitors of ATXN expression; note: nearly all actives have a fitted effect of over 55% in size
# Settings: HEK-293 ATXN2-luciferase reporter, luminescence, 24 h; series mostly up to 57 µM
# Procedure, shortened: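 ATXN2-luciferase reporter cells (luciferase flanked by upstream and downstream ATXN2 gene portions) were treated 24 h at 37 °C with compounds at up to 57 uM. SteadyGlo luminescence gave expression; GF-AFC fluorescence gave viability.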
# Potency is the fitted concentration of half-maximal effect; tags give direction and shape of the fitted curve.
row,SMILES,Potency
1,O=C(COc1ccccc1)Nc1cc(C(F)(F)F)ccc1N1CCCC1,"inconclusive: 35.5 µM [inhibitor, partial curve, poor fit]"
2,CC(O)CNCCNCc1c(OCc2ccccc2)ccc2ccccc12 (stereo not given),active: 25.1 µM
3,CC(C)c1ccc(CC(=O)N2CCC2(C)C(=O)Nc2cnc3ccccc3c2)cc1 (stereo not given),"inconclusive: 20 µM [inhibitor, partial curve, poor fit]"
4,Cc1cc(NC(=O)c2cncc(Br)c2)ccc1NC(=O)c1cc2ccccc2o1,"inconclusive: 3.55 µM [inhibitor, full curve, poor fit]"
5,Fc1ccccc1Nc1c2c(nc3ccccc13)CCC2,"inconclusive: 20 µM [inhibitor, single point]"
6,CCOc1cccc(-c2c(C(=O)N/N=C(\C)c3ccncc3)nnn2-c2nonc2N)c1,inactive
7,Cc1nc2ccccc2c(=O)n1NC(=O)c1ccc(Cl)c([N+](=O)[O-])c1,"inconclusive: 22.4 µM [inhibitor, single point]"
8,O=C(CSc1ccc(Cl)cc1)Nc1ccc(N2CCN(C(=O)c3ccco3)CC2)cc1,"inconclusive: 17.8 µM [inhibitor, partial curve]"
9,O=C1C(N2CCOCC2)=C(n2nnc3ccccc32)C(=O)c2ccccc21,active: 22.4 µM
10,Cc1ccc(CNC(=O)CCS(=O)(=O)c2cc3c4c(c2)CCN4C(=O)CC3)cc1,inactive
11,O=C(Nc1ccc(Cl)cc1)c1cnn2c1NC(c1ccccc1)=CC2c1ccccc1 (stereo not given),"inconclusive: 28.2 µM [inhibitor, single point]"
12,CC(=O)O[C@H]1C(=O)[C@@]2(C)C([C@H](OC(=O)c3ccccc3)[C@]3(O)C[C@H](OC(=O)[C@H](O)[C@@H](NC(=O)c4ccccc4)c4ccccc4)C(C)=C1C3(C)C)[C@]1(OC(C)=O)CO[C@@H]1C[C@@H]2O (stereo not given in full),"inconclusive: 0.0306 µM [inhibitor, full curve]"
13,COc1ccc(C(=O)CC(=O)c2ccc(C(C)(C)C)cc2)cc1,"inconclusive: 27.3 µM [inhibitor, partial curve]"
14,Cc1sc2ncnc(N3CCN(CCOc4ccc(Cl)cc4)CC3)c2c1C,"inconclusive: 14.1 µM [inhibitor, partial curve, poor fit]"
15,Cc1sc2ncnc(NCCN3CCOCC3)c2c1C,inactive
16,Cc1cc(C(=O)NCC2COc3ccccc3O2)c2ccccc2n1 (stereo not given),inactive
17,CCOc1ccc(NC(=O)CSc2nc3c(c(=O)n2C)SC(C)C3)cc1 (stereo not given),"inconclusive: 20 µM [inhibitor, partial curve, poor fit]"
18,CN=c1scc(-c2ccc(F)cc2)n1/N=C/c1ccc(O)c(O)c1,"inconclusive: 20 µM [inhibitor, single point]"
19,O=C(c1[nH]ncc1-c1ccc(Cl)cc1)C1CO1 (stereo not given),"inconclusive: 28.2 µM [inhibitor, partial curve, poor fit]"
20,COc1c(N2C[C@@H]3CCCN[C@@H]3C2)c(F)cc2c(=O)c(C(=O)O)cn(C3CC3)c12,"inconclusive: 44.7 µM [inhibitor, partial curve, poor fit]"

row,SMILES,Potency
1,O=C(Nc1cccc(S(=O)(=O)N2CCOCC2)c1)c1ccc2c(=O)n3c(nc2c1)CCCCC3,"inconclusive: 21.2 µM [inhibitor, partial curve, poor fit]"
2,CCc1ccc2c(c1)NC(=O)C2(C)Cc1ccc(C(F)(F)F)o1 (stereo not given),"inconclusive: 25.1 µM [inhibitor, single point]"
3,Cc1cccc(N(CC(=O)NCCc2ccccc2)S(=O)(=O)c2ccccc2)c1C,"inconclusive: 35.5 µM [inhibitor, partial curve, poor fit]"
4,CC(C)=CCC/C(C)=C/CNC(=O)C[C@H]1C[C@H](C(=O)N2CCOCC2)[C@@]2(C)c3[nH]c4cc(-c5ccco5)ccc4c3CCN2C1=O,"inconclusive: 25.1 µM [inhibitor, single point]"
5,CC1(Cc2cccc(C#N)c2)C(=O)Nc2ccc(-c3cccc(C(F)(F)F)c3)cc21 (stereo not given),"inconclusive: 25.1 µM [inhibitor, single point]"
6,CCN(CC)c1ccc(C2C(C(=O)OC)=C(C)NC(C)=C2C(=O)OC)cc1,inactive
7,COc1ccc(C(=O)Nc2ccc(-c3nc4ncccc4o3)cc2C)cc1Br,inactive
8,COc1cccc(/C=N/NC(=S)Nc2cccc(C(=O)O)c2)c1O,"inconclusive: 25.1 µM [inhibitor, single point]"
9,CCN(CC)c1ccc(NC(=O)C2CC(=O)N(Cc3ccccc3)C2)cc1 (stereo not given),inactive
10,COc1ccccc1NC(=O)CSc1nc2n[nH]c(C)c2c(=N)n1-c1ccccc1Cl,"inconclusive: 35.5 µM [inhibitor, single point]"
11,CCC(C(=O)O)c1ccc(N2Cc3ccccc3C2=O)cc1 (stereo not given),inactive
12,O=C(CCl)Nc1cc(-c2ccccc2)nn1-c1ccccc1,"inconclusive: 28.2 µM [inhibitor, single point]"
13,CCOC(=O)c1cc(-c2ccccc2C)n(CC2CC(c3cccc([N+](=O)[O-])c3)=NO2)n1 (stereo not given),"inconclusive: 39.8 µM [inhibitor, partial curve, poor fit]"
14,CN(C(=O)CSc1nc2ccc(NC(=O)c3cccc(F)c3)cc2s1)c1ccccc1,"inconclusive: 22.4 µM [inhibitor, single point]"
15,COc1cccc2cc(-c3nc(C4CCC(C(=O)O)CC4)n4ncnc(N)c34)[nH]c12 (stereo not given),"inconclusive: 4.85 µM [inhibitor, partial curve, poor fit]"
16,Cc1cc(C)n(-c2ccc(C(=O)Nc3ccc(S(=O)(=O)N(C)C)cc3)cc2)n1,"inconclusive: 14.1 µM [inhibitor, partial curve, poor fit]"
17,Cc1ccc(-n2ncc3c(Nc4ccc(Oc5ccccc5)cc4)ncnc32)c(C)c1,"inconclusive: 28.2 µM [inhibitor, partial curve, poor fit]"
18,COC(=O)[C@]1(CC(C)C)N[C@H](c2ccc(-c3ccc(F)cc3)cc2)[C@@H]2C(=O)N(C)C(=O)[C@@H]21,"inconclusive: 39.8 µM [inhibitor, partial curve, poor fit]"
19,Cn1c(CNS(=O)(=O)c2ccc(Cl)cc2)n[nH]c1=S,"inconclusive: 39.8 µM [inhibitor, partial curve, poor fit]"
20,O=C(N/N=C\c1c(O)ccc2ccccc12)c1ccc(S(=O)(=O)N2CCCCC2)cc1,active: 0.532 µM

row,SMILES,Potency
1,COc1ccc(Cl)cc1NC(=O)CSc1nc(=O)n(Cc2ccco2)c2c1CCC2,"inconclusive: 35.5 µM [inhibitor, single point]"
2,O=C(Nc1cccc(-c2csc(Nc3ccc(Cl)cc3)n2)c1)c1cccc(C(F)(F)F)c1,"inconclusive: 39.8 µM [inhibitor, single point]"
3,CS(=O)(=O)N1CCN(Cc2cc3nc(-c4cccc5[nH]ncc45)nc(N4CCOCC4)c3s2)CC1,"inconclusive: 30.6 µM [inhibitor, partial curve]"
4,Cc1cc(Cl)cc(C)c1OCCCCCn1ccnc1,"inconclusive: 31.6 µM [inhibitor, single point]"
5,CC(C)(C)NC(=O)[C@@H]1C[C@@H]2CCCC[C@@H]2CN1C[C@@H](O)[C@H](Cc1ccccc1)NC(=O)[C@H](CC(N)=O)NC(=O)c1ccc2ccccc2n1,"inconclusive: 39.8 µM [inhibitor, single point]"
6,O=C1CC(SC(=Nc2ccccc2)Nc2ccccc2)C(=O)N1c1cccc(Cl)c1 (stereo not given),inactive
7,Cc1cc(=O)oc2cc(OCC(=O)N/N=C/c3cc([N+](=O)[O-])ccc3O)ccc12,"inconclusive: 17.8 µM [inhibitor, partial curve, poor fit]"
8,COc1ccc2c(c1)c(C(O)CN1CCC(Cc3ccccc3)CC1)c(C)n2C (stereo not given),inactive
9,CCCCNC(=S)N1CCn2cccc2C1c1ccc(F)cc1 (stereo not given),inactive
10,Cc1cc(Nc2cccc(C(F)(F)F)c2)nc2ccc(NC(=O)Cc3ccc(Cl)cc3)cc12,active: 20 µM
11,CC(C)c1ccc2c(c1)NC(c1ccc(F)cc1)=NC(c1cccs1)=N2,inactive
12,COc1ccc(Nc2cc(C)c3cc(NC(=O)c4ccccc4Cl)ccc3n2)cc1,"inconclusive: 39.8 µM [inhibitor, single point]"
13,Fc1ccc(-c2noc3ncnc(NCCc4ccc(Cl)cc4)c23)cc1,inactive
14,CCN(CC)S(=O)(=O)c1cc(C(=O)Oc2cccc(-c3cnc4ccccc4n3)c2)ccc1OC,inactive
15,CCCCCCN1C[C@@H](n2cc(COC(=O)c3ccccc3)nn2)[C@H](O)C[C@@H]1c1ccc(Cl)cc1,"inconclusive: 25.1 µM [inhibitor, single point]"
16,Cc1cc(N2CCOCC2)cc2[nH]c(-c3c(NC[C@@H](O)c4cccc(Cl)c4)cc[nH]c3=O)nc12,"inconclusive: 30.6 µM [inhibitor, partial curve, poor fit]"
17,CCN(C(=O)COC(=O)CCC(=O)c1cccs1)c1c(N)n(Cc2ccccc2)c(=O)[nH]c1=O,inactive
18,Cc1c(C(=O)NCc2ccccn2)sc2nc(-c3ccccc3)cn12,"inconclusive: 1.68 µM [inhibitor, full curve, poor fit]"
19,COc1cc(CNc2ncnc3c2ncn3[C@H]2CN(Cc3ccc(-c4ccccc4)cc3)C[C@@H](CO)O2)cc(OC)c1OC,"inconclusive: 12.6 µM [inhibitor, partial curve]"
20,CC(C)C[C@H](NC(=O)c1[nH]cnc1C(=O)Nc1ccccc1)C(=O)OC(C)(C)C,"inconclusive: 31.6 µM [inhibitor, single point]"
